Assay results published in the supplement of paper PMC11417369.
± gives the standard deviation of the averaged measurements. Some of the results follow.

Tested on: PfAP2-G AP2 domain (GST-tagged)
Experiment: gcPBM binding intensity (ln(normalized median fluorescence intensity)); higher = stronger DNA binding
Outline: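 Each value is the highest Masliner-normalised natural-log median intensity across replicate spots of either orientation of a probe. The probes were primer-extended double-stranded 36-bp intergenic genomic sequences on an Agilent 4 × 180k array, alongside negative controls, exposed for 1 h to GST-tagged P. falciparum DNA-binding domains expressed in E. coli. Bound protein was picked up with Alexa488 anti-GST antibody and scanned at 488 nm.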

Point of comparison: “TTTACATCCAAAAACTGTACACTTATTTTATAATTC [XGTACX_site5332]”, “gcPBM binding intensity (ln)” value 11.4 ± 0.73. Against it:
- AAAGGAAAAAAAAGCACACACAATATTACTTGAAAT [CACACA_site2588] — lower, 9.915 ± 0.092
- TATATACACAGACACACACACACATACACGCACATA [CACACA_site6909] — within error, 10.5 ± 0.38
- GTACTATACAAAGATGATAATCAATATATATATATA [XGTACX_negctrl_site264] — within error, 10.5 ± 0.6
- ATTATTTGTTTAATGAGTACGAAGACAAATTTTACC [XGTACX_site5223] — within error, 11.1 ± 0.48
- ATAAAAATAAAAAGTGTGCACACAAAAATATATATA [GTGCAC_site9931] — within error, 10.7 ± 0.3
- TAATTTTATTTTATATGTACGCAATACAAATATATA [XGTACX_site8461] — within error, 11.3 ± 0.98
- TTAATTGACATAAAAAGTACTCATATAGATATGCAC [XGTACX_site6391] — within error, 11.2 ± 0.71
- AAAAAGAACAGAAACACACAAATAAAATAAAATTGT [CACACA_site6921] — lower, 9.77 ± 0.014
- AAATGTTAATAAAGGTGTACACAAAATAAAAAAAAT [XGTACX_site463] — within error, 11.7 ± 0.71
- AAGATTCATTGGTTCTGTACAAAATAAACACTATAA [XGTACX_site834] — within error, 10.7 ± 0.34
- CACCCCCACAGACACACACACACACCCATATATATA [CACACA_site364] — within error, 11.2 ± 0.81
- ATATATTATGAAGACTGTACATTTACATGAAAAAAA [XGTACX_site7203] — within error, 10.9 ± 0.45
- TTACCAAAAAAATGTAGTACAATATAATATTATTTA [XGTACX_site5750] — within error, 11.6 ± 0.95
- AATATATATATTTAAGTGCATAATATTGTAATATTA — lower, 9.91 ± 0.028
- CTTCAATTAAAATTCACACATATAAATTAAAATATT [CACACA_site6129] — lower, 9.62 ± 0.042
- ACATATTATATATGTGTGCACATATATATATATTTA [GTGCAC_site9591] — lower, 10.3 ± 0.23
- ATATTTGCATGTGGTAGTACATAACATTCTTTTACA [XGTACX_site8194] — within error, 11.6 ± 1.1
- ATATCTTATAATACGGTGCACTTGACATGAACAACT [GTGCAC_site9987] — within error, 10.6 ± 0.48
- AGAGAGAAAGCTATAACATGCAACAATTTTTTGAAA [TGCATGCA_site514] — lower, 9.66 ± 0.15
- ATATATAATTAATTTTGTACACATAAAAAAAAAAAT [XGTACX_site6647] — the same, 11.4 ± 0.69
- TTTATATATATAATATGTACACATAATAATAATACA [XGTACX_site4862] — within error, 11.6 ± 0.91
- AAATGACATTTCAAAAGTACATATTTAATTAATTAA [XGTACX_site2919] — within error, 11.1 ± 0.73
- AAAAAATATTAGACTTATAAAGCATAAAGGATATTA [GTGCAC_negctrl_site588] — lower, 9.75 ± 0.13
- AATTTATTATTTTATTGTACGTATTTTTTTTTTTAT [XGTACX_site2298] — within error, 11.6 ± 0.81
- CATATATAAATATATACACACATACATACATACATA [CACACA_site5988] — lower, 9.96 ± 0.014
- ATATTATAGTTATGAACATGCAAACATTACGAAATA [TGCATGCA_site54] — lower, 10.1 ± 0.18
- TTTATTTAAAAAGTTTGTACATATATATTATTTTGA [XGTACX_site6040] — within error, 10.9 ± 0.56
- GAATCATATTTAAACACACATACATATATATATATA [CACACA_site3352] — lower, 9.92 ± 0.028
- AATAAGTAACAAAATACACACATATATATAATTATA [CACACA_site1837] — lower, 9.945 ± 0.064
- ATATATATAATATGTAGTACTTTCCTCTCAAATCAT [XGTACX_site7766] — within error, 11.2 ± 0.87
- ATCAAAAATATAAAAAATATAAACAATTTATTATCA [CACACA_negctrl_site768] — lower, 9.46 ± 0.13
- TTCATTTTTTAAGCATCACACACGAAAGAACAAAGT [CACACA_site1122] — within error, 10.5 ± 0.44
- TTCATTATTATTAACATACACACGTGTTATATACAC [CACACA_site4112] — lower, 10.01 ± 0.099
- AAAAAATACAAGAAATGTACTCAAGCATATATTAAT [XGTACX_site3325] — within error, 11.2 ± 0.67
- TTTTTACTATAATTAAAATTAACAAAAGAAAATGAT [GTGCAC_negctrl_site52] — lower, 9.97 ± 0.31
- TTTAATAATATAATGTGTACTTAAAAATTTATATAT [XGTACX_site5821] — the same, 11.4 ± 0.93
- AAAAATATATAAGAGAGTACATAAAATAAATTAATT [XGTACX_site1534] — within error, 11.3 ± 0.86
- TCATAAATTAATAATACATGCATAATATTAAAATGT [TGCATGCA_site5] — lower, 9.7 ± 0.014
- TCATTTTATTATTCTACACACTTATCTATAATTACA [CACACA_site6168] — lower, 10.2 ± 0.21
- TTACATGTACAAAAGTTGCACTTCATACACTTTTAT — within error, 11.1 ± 0.61
- ATTCTATATATGTGCACACAAAAGATATATATATAT [CACACA_site2124] — within error, 10.7 ± 0.48
- CGAAGGTTTGGCCATGCATGTTATAAGAATATATGT [TGCATGCA_site441] — lower, 10.14 ± 0.064
- AATATAAAATAATGCACACATAAACAAAAAATCAAA [CACACA_site1371] — lower, 10.1 ± 0.078
- TCATTTCAATACACAAGTACGTATATGGTTATATTG [XGTACX_site6021] — within error, 11.2 ± 0.6
- CATATGTATATGACTACACACAAGGGTGTACATATA [CACACA_site1164] — within error, 11.6 ± 0.93
- ACATGAAGATATTTTTGTCCGTACAAATTCATATGA [XGTACX_site1837] — the same, 11.4 ± 0.97
- TTTCCAAATTGTTGACGGACACTCACGAATAGTTAT [XGTACX_site5720] — within error, 11.3 ± 0.64
- TACGTTATGTTGAATAGTACAATTTGGTGAACAGGT [XGTACX_site1729] — within error, 11 ± 0.55
- GTCCTCATCCACTATGCACACAAAAAAGAAATACAC [CACACA_site9131] — within error, 10.7 ± 0.54
- TTTTTTTTTTTTTTTTGTACACAAATTTATTGTCTA [XGTACX_site2680] — within error, 11.3 ± 1
- AGTATATCAAAATACATACACACATTTGTATATACA [CACACA_site2697] — lower, 9.955 ± 0.064
- TGAATTCGTCAAAAGCGTACATATAATATCTTCTTG [XGTACX_site8842] — the same, 11.4 ± 0.67
- ACATATATATATATATATAATATTTTATATTTATTA [CACACA_negctrl_site713] — lower, 10.1 ± 0.39
- TTATAAAAATAATATCGTACAAATGATAAAGATTAA [XGTACX_site4893] — within error, 11 ± 0.38
- ATATTTTTTTATAAATGTACAAAAATAATATTGCAT [XGTACX_site7399] — within error, 10.7 ± 0.52
- AAAATAATGTTTATATGTACATATATATATATATAT [XGTACX_site8815] — within error, 11 ± 0.57
